# Changes are numbered by the printed parent chain. The list shows a part of the results.
# T1: UNK ZnF1-3 (human, UniProt Q9C0B0 31-174)
# T1 sequence: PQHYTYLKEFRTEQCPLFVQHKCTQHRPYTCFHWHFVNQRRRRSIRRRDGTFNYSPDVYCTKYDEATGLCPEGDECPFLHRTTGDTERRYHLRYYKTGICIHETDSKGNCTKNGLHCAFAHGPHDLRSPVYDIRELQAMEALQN
# B1: chrX:20248820:20248821:+_ENSMUSG00000001924_ENSMUST00000001989|mus_mus|mus_mus_mus_hu_True|88_108 (ssRNA)
# RNA: GGGAGUUCUACAGUCCGACGAUCGGCAAAGUCAGUCACCACAAAGUCAGGCUCUACCAGUGAGGCCACCAAGGAUUUAAAGCUAAUCUUCUUAGGUACUUUGACCUGACUGACGAUGCCUCCACGGAUGUAGUCGGAGAAGUUCAACAGAGGAUUGAGCAUCA
# B2: 33856500_33856620_4295_3pUTR_ENSMUSG00000042197_ENSMUST00000044455|mouse|control|control (ssRNA)
# RNA: GGGAGUUCUACAGUCCGACGAUCGUUUCCAAAAGCACAUCUCCAAGCAUUAUUUAUUUUGUUUUGUUUUUAAACAACAAGAGUAUCUCAUAAAUCAUGUGAUAUGUAGCAUCUAAUUCAGGGCAAGAUGGAAAAGAACAAACGCAACAGAGGAUUGAGCAUCA
# B3: chr10:57206289:57206290:+_ENSMUSG00000019878_ENSMUST00000079833|mus_mus|FALSE|FALSE (ssRNA)
# RNA: GGGAGUUCUACAGUCCGACGAUCGCCGGCACGUUGGAACUCUGCUUCAUUGUUAGCCCGGUGCAGGGAUUCCAAAUUCUACUACCGAACGCGGAGGUCGCAGCGGCGGCGGCGGCGGCGGCGGCGGCAGCAGCGGCGGUGGCACAACAGAGGAUUGAGCAUCA
# B4: chr2:29169617:29169618:+_ENSG00000163811_ENST00000407426|hu_mus|FALSE|FALSE (ssRNA)
# RNA: GGGAGUUCUACAGUCCGACGAUCCGUGUGACUGGCUGGCUGCAUCUGUCUUCAUUCUUCUUCACUCUCGUUUUCAGGAUCUAAAUCCGAAUCUCCAUUUAAUUCUUUUUCACUUGACACUUCUCUGUCCUCCUCAUUCUCUUCCAACAGAGGAUUGAGCAUCA
# B5: chr12:55961440:55961441:-_ENSMUSG00000062929_ENSMUST00000078124|mus_mus|FALSE|FALSE (ssRNA)
# RNA: GGGAGUUCUACAGUCCGACGAUCCAUCAUGACUGAUAUUCAAAAUAUCUGUAGUGUUUCAAGACUCAUAUGGUAAACAUAAAUUAUACAGUAGUGUACACUCAUCGGGAAACCAAAGACAUUAGCACAGCUGUUUCUUUGAAACAACAGAGGAUUGAGCAUCA
# B6: chr14:76904430:76904431:+_ENSMUSG00000022010_ENSMUST00000022587|mus_mus|mus_mus_mus_hu_True|88_88 (ssRNA)
# RNA: GGGAGUUCUACAGUCCGACGAUCUGCAGCCAAAAACACCCUCGUGGCGGGAGGGAGGGAACACCAGCAGCCUUGUAUAAGCUAGAUAAAAUCUUCUGGCUUUCCGCAGCCCAGGGAGAAACAGAAAACGGCAGCCCUAAUUUACAACAGAGGAUUGAGCAUCA
# B7: chr10:79719409:79719410:+_ENSMUSG00000020153_ENSMUST00000020361|mus_hu|FALSE|FALSE (ssRNA)
# RNA: GGGAGUUCUACAGUCCGACGAUCCCAGAUCUGCAGCCUCCGCUCCCGCUUGAUCUUCCUCUGCAGCUGCAGGAUGCCGUAGAGCAGGGCCUCGGCCGUAGGUGGGCAGCCUGGGAUGUAGAUGUCCACGGGCACGAUGCGGUCCAACAGAGGAUUGAGCAUCA
# B8: chr2:155973683:155973684:-_ENSMUSG00000027620_ENSMUST00000109587|mus_mus|motif|central (ssRNA)
# RNA: GGGAGUUCUACAGUCCGACGAUCCAUGGACAUUUAAAACAGCAGAACAAGAGAACAGCUUUGCAUAAAGUAGGAUUUGCGGGUUAGGGAUAAUGAGCACACUGCAUUCCUGUUAACAUUUUUAUUUUUCAAGGUAACAGGAGUCAACAGAGGAUUGAGCAUCA
# B9: chr2:232320318:232320319:-_ENSG00000115053_ENST00000322723|hu_hu|hu_hu_hu_mus_True|18_78 (ssRNA)
# RNA: GGGAGUUCUACAGUCCGACGAUCACUAUUAAAGUCUACAAAACCAAACCCUUUGGAGGACCCAGUUUCCCGAUCAGUGACUAUUCUUGCACGAACAGAGCCCUCAAAUGAUUCUUUUAAUGUCUCUUCAGUGGUAUCCUCAGACAACAGAGGAUUGAGCAUCA
# B10: chr2:232320318:232320319:-_ENSG00000115053_ENST00000322723|hu_hu|hu_hu_hu_mus_True|68_68 (ssRNA)
# RNA: B9 RNA with G57A, C60A, A72G, U120G
# B11: 11923595_11925804_69_5pUTR_ENSMUSG00000022205_ENSMUST00000022816|mouse|control|control (ssRNA)
# RNA: GGGAGUUCUACAGUCCGACGAUCAGUUCCUUUGAUUUAGGCAUUGCUCCGCUCCGGCCGACCAAAAACCUCUGCCUCGCUCGCUCGCCUACUCCGGACUGACAGAGAGCCGGAAAUGACGGCAGCUUAGAGGCCCUGGCUCCGCAACAGAGGAUUGAGCAUCA
# B12: chr7:151048522:151048523:+_ENSG00000013374_ENST00000566856|hu_mus|hu_hu_hu_mus_True|68_78 (ssRNA)
# RNA: GGGAGUUCUACAGUCCGACGAUCCUGUUUCUUAUUUAUUACGAUCUUGAUGUAAUUUUCUUGAAGUCCAAAGGUUUCAGCUAUUUGACACCUCAGGUCUCUACCAGUGACAUGCAAGCGGGUCUCCAACAAGCUUUUCUUAUCCAACAGAGGAUUGAGCAUCA
# B13: chr4:25749455:25749456:-_ENSG00000091490_ENST00000264868|hu_hu|hu_hu_hu_mus_False|58_108 (ssRNA)
# RNA: GGGAGUUCUACAGUCCGACGAUCGCAAGCACUAGGAUAGAAAAAUCCACAGGGGGAAAAAAUGUAAACCAAUGUACAAAGCUAUUGCCUUCCCUGUGUGUGGAGUGUUUGUCUCAAGGCUCCUUCUAGCUGCUGGAUUUGGGACAACAGAGGAUUGAGCAUCA
# B14: chr14:21319500:21319501:-_ENSMUSG00000021816_ENSMUST00000161445|mus_hu|FALSE|FALSE (ssRNA)
# RNA: GGGAGUUCUACAGUCCGACGAUCGAGUUGUAUUCCAGGGCAUGAGGGAAGCAGGCCACCAAAGUAAAGGGAAAUACCAAACUACAGUGGCAAUCAAUACAGGUCAAUAAUUGUGAAAAAUUAGCACAUGGUUCCAUUUAGUUUCAACAGAGGAUUGAGCAUCA
# B15: 88342591_88342711_3111_3pUTR_ENSMUSG00000074480_ENSMUST00000172699|mouse|control|control (ssRNA)
# RNA: GGGAGUUCUACAGUCCGACGAUCCUCCUUCCUCUCCCCUCCCAGGCUGGUGGUCUGGAGGGGAAGGCUGAGGAGAGGCAAGUUAAUUCACAAGAGGCAGGAGAGAGAGAGACCUCCCUCUGCCCUCAUCCCACAUCCUUUCCCCAACAGAGGAUUGAGCAUCA
# B16: chr12:48362563:48362564:+_ENSG00000134291_ENST00000256686|hu_hu|hu_hu_hu_mus_False|78_98 (ssRNA)
# RNA: GGGAGUUCUACAGUCCGACGAUCUCCGUCAAGCCCUUCAAGCCCCACUUGCGGGGGUGGUAAAAACCACUUUGUAUGGGGAAGGAAAAGAAACGCCAAAAACUUUCCAAAAAGCGGGGGUGGGGUGAGGCGGGAGGGGGAGGUCAACAGAGGAUUGAGCAUCA
# B17: chr4:57314706:57314707:+_ENSG00000128050_ENST00000264221|hu_hu|motif|central (ssRNA)
# RNA: GGGAGUUCUACAGUCCGACGAUCCAGUAUUUCAAAUAUAGCCUGUGUAGCAUGACUCAUGAUAUCCACUUCAGUCUGGCCGGUAAGAAGUCCAGCAAAGCAAAAUUUUGCAGCAAUCAGCUGUUCCUCAGACCACUGUGGGUCCAACAGAGGAUUGAGCAUCA
# B18: chrX:140365796:140365797:-_ENSMUSG00000031285_ENSMUST00000033642|mus_mus|mus_mus_mus_hu_False|58_58 (ssRNA)
# RNA: GGGAGUUCUACAGUCCGACGAUCCUUCUCAUUACUCAGUGCCUGCAAGGUUCUGGUUCGGUAGAAGCUACAGUGGGCACUAUGAGUGGGGCUAGGCAACCCAUUCAUCCGGGAGCCUCGCAUGUUCCUGGAUGUCUUAUCUCUCAACAGAGGAUUGAGCAUCA
# B19: chr2:228220401:228220402:+_ENSG00000168958_ENST00000354503|hu_mus|motif|central (ssRNA)
# RNA: GGGAGUUCUACAGUCCGACGAUCUAAUGAAGCUGCAUCUACCACAGUCAUGUCAUCUGAAGCUCCUUCAAUGGCUGCAUCGGGGUUUGAAAUGCCAUACCUGACGUUGUCAUGAUGAGGAUUAGAAGUGGCGGCAGCUGACCCCAACAGAGGAUUGAGCAUCA
# B20: 144383123_144383243_104_3pUTR_ENSMUSG00000037062_ENSMUST00000163279|mouse|control|control (ssRNA)
# RNA: GGGAGUUCUACAGUCCGACGAUCAGGUGGCGGGAGGCGGCGCCAGCCCCGCGCAGCUGUCGUUUCCUGGCGGGGAGGCGGGGGAGGGAAGAGGGCGGGCGCCCGCGAGCGCGCGCCUCUCCGCUCACACGCUGGGCCUGUCGCCAACAGAGGAUUGAGCAUCA
# B21: chr1:163115887:163115888:-_ENSG00000143248_ENST00000313961|hu_hu|motif|central (ssRNA)
# RNA: GGGAGUUCUACAGUCCGACGAUCUUAGAAAAAAUUCUAGCAAGACUUAUAAUCAUGAAAUACAGAAUUAAAAGUUUAAACCGGCCAAAAGUCCUAUGGCCUAUUAUUUAGCUGUGAAUGAGACACGUCAGGAGUAUAAAUCUGCAACAGAGGAUUGAGCAUCA
# B22: chr4:140309118:140309119:+_ENSG00000164134_ENST00000296543|hu_hu|motif|central (ssRNA)
# RNA: GGGAGUUCUACAGUCCGACGAUCAUAUCCAGGAGGCAUGAAAGCCAAAGCAUAAGGGAAAAGCUUAUGACAAUUUGCUCGGUAAAUUUCAGCAGCUUCUUUACAGUCUCCUAGGCUACCAUCAUACAAGGCUUCCAAUACCUCCAACAGAGGAUUGAGCAUCA
# Target: T1, UNK ZnF1-3
# Experiment: nsRBNS (natural sequence RNA bind-n-seq); RBNS binding buffer (assumed for nsRBNS): 25 mM Tris pH 7.5, 150 mM KCl, 3 mM MgCl2, 0.01% Triton X-100, 500 ug/ml BSA, 20 U/ml SUPERase-In, 4 C; UNK is unkempt and MSI1 is Musashi-1; names of the RNAs are library labels; protein concentration not given here; high values mean tight binding
row,Binder,binding signal
1,B1,0.925 enrichment R
2,B2,1.47 enrichment R
3,B3,0.728 enrichment R
4,B4,0.439 enrichment R
5,B5,0.9 enrichment R
6,B6,2.13 enrichment R
7,B7,0.51 enrichment R
8,B8,1.54 enrichment R
9,B9,0.969 enrichment R
10,B10,0.394 enrichment R
11,B11,0.21 enrichment R
12,B12,0.675 enrichment R
13,B13,1.26 enrichment R
14,B14,2.07 enrichment R
15,B15,0.75 enrichment R
16,B16,2.08 enrichment R
17,B17,1.05 enrichment R
18,B18,0.389 enrichment R
19,B19,0.787 enrichment R
20,B20,0.964 enrichment R
21,B21,0.916 enrichment R
22,B22,0.711 enrichment R
